Results published in the supplement of paper PMC10126150.
Values marked as one replicate rest on one cluster of the flow cell; about a third of the high ones do not repeat.

System: ATP
Test: switch fluorescence ratio, 500 uM ATP over buffer (Cy3 cluster intensity, sum of 5 cycles each) (fold (ratio)); higher = stronger signal-on switching upon ATP binding; sequences stand for … in TCGTCGGCAGCGTCAGATGTGTATAAGAGACAGTTTTTTTTTTTTTTTTTTTTTTTTT…TC
Conditions: aptamer strand: ATP DNA aptamer (quencher-CACCTGGGGGAGTATTGCGGAGGAAGG + anchor), 100 nM annealed; ATP concentration: 500 uM; one replicate
Procedure, shortened: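 Values give the fluorescence ratio for each switch-domain sequence, averaged from per-cluster ratios of summed target-cycle to summed buffer-cycle Cy3 intensity. The Cy3-labelled switching-strand clusters sat on a modified Illumina MiSeq flow-cell, were annealed to 100 nM quencher-labelled ATP aptamer, and were imaged in selection buffer, then after 15 min with 500 uM ATP at 22 °C. Five cycles ran with NaOH stripping and re-annealing between them, and clusters outside 100-1000 RFU were excluded.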
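Note: ATP exposure 15 min at 22 °C before imaging.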

Sequence	switch fluorescence ratio
TAGGTTCGAT	1.01
AATCGTGTTC	0.953
GTCATCATCC	0.989
TCTCCCGTAT	1.14
TTGTCCTGTA	0.968
TCCCGTGTCG	1.05
CTGAGCGCGA	1.1
TATTCAACAT	1.23
CACAGGCGGA	1.06
GTCCCCTCAA	1.14
CAGAAATGTC	1.11
GTTACTTATT	1.02
CGGCGTTAAA	0.984
AATGATCCTT	1.06
TTCGTCAATT	1.03
TTTTGAGGA	0.985
GAATTGACAT	1.03
TCAGCGCATT	1.36
CCAGGGGAGC	1.26
GCGTATAGAG	0.976
CATCTACAT	1.06
ACAACAATTG	0.998
TGTTGGACAA	1
GAGTATTCCT	1.04
CGGGCATACA	1.11
CAGGCGCCCT	0.987

Sequence	switch fluorescence ratio
TAGTATATTC	0.972
GCTGAGAGG	0.981
GCTCCATCGT	1.02
GCCTGACCGA	1.3
CTTAACGGGT	0.946
GGGTCTTCTG	1.03
GATGCTTATA	0.98
CGGGCGAGTC	0.986
CGCCTGGTCG	0.968
GGCTTTAGAT	1.03
AGGCTTTTCT	0.998
TGATCGACAA	1.03
GGAGTCCCGC	0.982
AAGAAGCAAA	1.05
CATTATTCCA	0.987
ACTAATTCGC	1.06
TTGATGATA	0.938
GGTCTTAACA	0.988
GGCGGACCCG	1.01
GGCCAAAGAT	0.963
CAGACTTGCC	1.07
TAGCAAGT	1.1
AGTGGGAGCT	0.971
GCTGCGACAC	2.2
TCGTCTAAGT	1.01
TTACCTATAA	1.07

Sequence	switch fluorescence ratio
GTTTTGGCGG	0.975
TCCGGCTTTT	0.991
TCTGGTAGGC	1.03
CGATTTCTGA	1.02
GGCAACAGAT	1.06
CTGTGTTGG	0.979
TTTGGGACTG	1.08
CGGACTGAGG	0.96
CGAATGATAG	0.959
ATGAAGGAAA	1.55
CCCGTGTTCG	0.916
ATCTAGTCAA	1.08
GAACAGTATA	1.02
CGTCTCTCTT	1.03
ACGTTAGTT	0.94
ATGCCAGCAA	2.19
TTCGGTTTGA	0.979
TAGGTTGGCC	1.11
ACTATCTATA	1.01
AGTTGAGATC	0.938
GGCTCCCTCA	1.04
TAAGGAGTG	0.916
TATTTTCATA	1.11
TCAGGCCGGG	1.02
GATAGTTAGA	1.05
TGGGCATTCA	0.988

Sequence	switch fluorescence ratio
CGAGATTTTG	0.958
TCGCTACGAT	1.17
CGAACGTACA	1.9
AACCGCTTTG	0.978
AGTATGTTAC	1
TGGGGAGTG	1
TAGCGACCTG	1.03
CACCGAGTCA	1.02
AACATGAATT	0.983
CAGTTCGCGG	1.02
ATGGGACATG	1.06
TTTAGCGCTC	1.05
AATGTTAAGC	0.947
ATTAATGAT	1.01
TCGGAGCTAA	5.07
AATAAGCCTG	0.974
CGAGTTAACT	0.989
ACTCATCTTA	1.01
CTATGCGTTG	1.01
TTTGCGAACG	1.05
TGTCCTATCT	1.01
CGGTGCGCCT	1.02
GGAGTTCGAA	1.02
ACGCGGGACC	0.994
GGGTAACACG	1.03
AAGGTCTAGA	1.04

Sequence	switch fluorescence ratio
TACTAGGTGG	1.06
AAGGTTCAGT	1
TTTTACTCA	1.01
CTTTAGTACT	1.01
TCTTCTCTGC	1.16
AGCAATATAG	2.13
TGACGGGGCC	0.958
TAGGTTGGAG	0.994
GCTCGAGATG	0.998
TTTTCAGCGT	0.993
GCATGTTCAG	0.982
TCCGATGTG	1.17
CGGGCGCCTA	1.03
GGAGTTCGGA	1.02
CCCAGTGTGT	4.21
TTGCGTAAGT	1.02
CCAATTTGGT	1.01
TTCAACGGCA	1.11
GTCAGACGTT	1.04
GAATGTGCTT	0.958
AGCCCACCCC	1.2
GGTTGATGAG	0.939
GAATAGGTGT	1.07
GTAGTGAATC	1.03
AACAGATGCC	1.02
AGTCAGTGCC	1.04

Sequence	switch fluorescence ratio
ATGCTGGTCA	0.957
TCAAAAGTTC	1
AAAAGAGCCG	1.15
CATAAGCGTT	0.995
CCACAGAATG	1.02
GGTTGGGCCA	1.01
AAGACGGATC	0.983
AGTGAGACTC	1.13
ACAGTCG	1.02
GAGGAGGCCT	0.941
AACGGTATAG	1.06
GAGTTCTTAC	1.02
CTGTTGAGAT	0.969
CTTATTTAC	1.04
AGTTGTGGGA	1.04
AATAAGGCAA	1.02
ATGATATGTG	1.02
TATCGGAACG	1.01
AGGGAGTGCA	0.958
ACCGTTTCGG	0.963
GGACTGGTGT	1.01
CTGTTGGTG	1.03
AGCAGCAAGC	1.44
